Results reported in the supplement of paper PMC12217912.
The list shows a part of the results. The full chains were built here from the parent and the listed change. Inactive controls read about 0.05.

B1: TEV protease; numbered along this chain (parent)
chain: MGESLFKGPRDYNPISSSICHLTNESDGHTTSLYGIGFGPFIITNKHLFRRNNGTLVVQSLHGVFKVKDTTTLQQHLVDGRDMIIIRMPKDFPPFPQKLKFREPQREERICLVTTNFQTKSMSSMVSDTSCTFPSGDGIFWKHWIQTKDGQCGSPLVSTRDGFIVGIHSASNFTNTNNYFTSVPKNFMELLTNQEAQQWVSGWRLNADSVLWGGHKVFMVKPEEPFQPVKEATQL

Variants of: B1
Assay: raw area under fraction-flipped curve 0-4 h after induction (AUC4h, not background-subtracted), DNA-recorder readout of cleavage of the substrate (dimensionless); higher = more cleavage of the substrate by the protease variant
Conditions: temperature: 34 °C; time window: 0-4 h after rhamnose induction
Experimental: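 In vivo DNA recorder in E. coli TOP10(DE3) ΔrhaA at 34 °C. Each TEVp single-site mutant (parent TEVp 0) is paired with a single-site variant of the 7-mer TEVs (canonical ENLYFQ|S). The substrate sits between flexible linkers in a Bxb1-sfGFP-TEVs-SsrA fusion, so cleavage stabilises Bxb1 and speeds flipping of a recombination array, read by NGS. The value is the raw area under the fraction-flipped curve over 0-4 h after rhamnose induction (AUC4h), with ≥20 reads per time point. It is not background-subtracted; inactive controls average about 0.047.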
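Also: Bxb1 expression induced with 0.2% (w/v) L-rhamnose at OD600 near 0.5, cultures sampled hourly, flipped fraction per protease–substrate barcode pair counted by paired-end Illumina sequencing.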

Row | Variant | area with substrate ENLAFQS | area with substrate ENLCFQS | area with substrate ENLDFQS | area with substrate ENLFFQS | area with substrate ENLKFQS | area with substrate ENLLFQS | area with substrate ENLNFQS | area with substrate ENLQFQS | area with substrate ENLRFQS | area with substrate ENLSFQS | area with substrate ENLTFQS | area with substrate ENLGFQS | area with substrate ENLHFQS | area with substrate ENLMFQS | area with substrate ENLPFQS | area with substrate ENLVFQS | area with substrate ENLWFQS | area with substrate ENLEFQS | area with substrate ENLIFQS
1 | MGESLFKGPRDYNPISSSICHLTNESDGHTTSLYGIGFGPFIITNKHLFRRNNGTLVVQSLHGVFKVKDTTTLQQHLVDGRDMIIIRMPKDFPPFPQKLKFREPQREERICLVTTNFQTKSMSSMVSDTSCTFPSGDGIFWKHWIQTKDGQCGSPLVSTRDGFIVGIHSASNFTNTNNYFTSVPKNFMELLTNQEAQQWVSGWRLNADSVLWGGHKVFMVKPEEPFQPVKLATQL [E231L] | 0.0651 | 0.061 | 0.0558 | 0.0834 | 0.0685 | 0.0701 | 0.0593 | 0.0616 | 0.069 | 0.0648 | 0.0856 |  |  |  |  |  |  |  | 
2 | MGESLFKGPRDYNPVSSSICHLTNESDGHTTSLYGIGFGPFIITNKHLFRRNNGTLVVQSLHGVFKVKDTTTLQQHLVDGRDMIIIRMPKDFPPFPQKLKFREPQREERICLVTTNFQTKSMSSMVSDTSCTFPSGDGIFWKHWIQTKDGQCGSPLVSTRDGFIVGIHSASNFTNTNNYFTSVPKNFMELLTNQEAQQWVSGWRLNADSVLWGGHKVFMVKPEEPFQPVKEATQL [I15V] |  | 0.0694 | 0.0665 | 0.0987 | 0.0851 | 0.0706 | 0.0646 | 0.0785 | 0.0601 | 0.0534 |  | 0.0727 | 0.0726 | 0.0796 | 0.0634 | 0.0942 | 0.072 |  | 
3 | MGESLFKGPRDYNPISSSICHLTNESDGHTTSLYGIGFGPFIITNKHLFRRNNGTLVVQSLHGVFKVKDTTTLQQHLVDGRDMIIIRMPKDFPPFPQKLKFREPQREERICLVTTNFQTKSMSSMVSDTSCTFPSGDGIFWKHWIQTKDGQCGSPLVSTRDGFIVGIHSASNFTNTNNYFTSVPKNFMELLTNQEAQQWVSGWRLNADSVLWGGHKVFMVKPEEPFQPVKEACQL [T233C] | 0.072 | 0.0652 | 0.0604 | 0.0727 |  | 0.0721 | 0.0719 | 0.0754 | 0.0638 | 0.0563 | 0.095 |  | 0.0789 |  | 0.0641 |  | 0.0639 | 0.0711 | 0.0842
4 | MGESLFKGPRDYNPISSSICHLTNESDGHTTSLYGIGFGPFIITNKHLFRRNNGTLVVQSLHGVFKVKDTTTLQQHLVDGRDMIIIRMPKDFPPFPQKLKFREPQREERICLVTTNFQTKSMSSMVSDTSCTFPSGDGIFWKHWIQTKDGQCGSPLVSTRDGFIVGIHSASNFTNTNNYFTSVPKNFMELLTNQEAQQWVSGWRLNADSVLWGGHKVFMVKPEEPFQPVKEATCL [Q234C] | 0.0724 |  | 0.0666 | 0.076 | 0.0695 | 0.0773 | 0.0467 | 0.0731 | 0.083 | 0.0604 | 0.0757 | 0.0627 | 0.07 |  |  | 0.0795 |  | 0.0437 | 0.0995
5 | MGESLFKGPRDYNPISSSICHLTNESDGHTTSLYGIGFGPFIITNKHLFRRNNGTLVVQSLHGVFKVKDTTTLQQHLVDGRDMIIIRMPKDFPPFPQKLKFREPQREERICLVTTNFQTKSMSSMVSDTSCTFPSGDGIFWKHWIQTKDGQCGSPLVSTRDGFIVGIHSASNFTNTNNYFTSVPKNFMELLTNQEAQQWVSGWRLNADSVLWGGHKVFMVKPEEPFQPVKEATML [Q234M] | 0.0637 | 0.0973 | 0.065 | 0.0626 | 0.0475 | 0.0717 |  |  | 0.0507 | 0.0751 | 0.0723 |  | 0.0622 | 0.0689 | 0.0631 |  |  |  | 
6 | MGESLFKGPRDYNPIPSSICHLTNESDGHTTSLYGIGFGPFIITNKHLFRRNNGTLVVQSLHGVFKVKDTTTLQQHLVDGRDMIIIRMPKDFPPFPQKLKFREPQREERICLVTTNFQTKSMSSMVSDTSCTFPSGDGIFWKHWIQTKDGQCGSPLVSTRDGFIVGIHSASNFTNTNNYFTSVPKNFMELLTNQEAQQWVSGWRLNADSVLWGGHKVFMVKPEEPFQPVKEATQL [S16P] |  | 0.0542 | 0.0575 | 0.0695 | 0.0764 | 0.0637 | 0.0743 | 0.0789 |  |  |  |  | 0.0659 | 0.0676 | 0.0607 | 0.087 | 0.0625 | 0.0573 | 0.0948
7 | MGESLFKGHRDYNPISSSICHLTNESDGHTTSLYGIGFGPFIITNKHLFRRNNGTLVVQSLHGVFKVKDTTTLQQHLVDGRDMIIIRMPKDFPPFPQKLKFREPQREERICLVTTNFQTKSMSSMVSDTSCTFPSGDGIFWKHWIQTKDGQCGSPLVSTRDGFIVGIHSASNFTNTNNYFTSVPKNFMELLTNQEAQQWVSGWRLNADSVLWGGHKVFMVKPEEPFQPVKEATQL [P9H] |  | 0.069 | 0.0634 | 0.0824 |  |  | 0.0657 | 0.0646 |  |  |  | 0.0775 | 0.0365 |  | 0.0572 |  | 0.0663 |  | 
8 | MGESLFKGPRDYNPISSSICHLTNESDGHTTSLYGIGFGPFIITNKHLFRRNNGTLVVQSLHGVFKVKDTTTLQQHLVDGRDMIIIRMPKDFPPFPQKLKFREPQREERICLVTTNFQTKSMSSMVSDTSCTFPSGDGIFWKHWIQTKDGQCGSPLVSTRDGFIVGIHSASNFTNTNNYFTSVPKNFMELLTNQEAQQWVSGWRLNADSVLWGGHKVFMVKPEEPSQPVKEATQL [F226S] | 0.0578 |  | 0.0619 | 0.0933 |  | 0.0652 | 0.0618 | 0.0763 | 0.0751 |  |  | 0.0479 | 0.0651 |  | 0.0558 | 0.092 | 0.0731 | 0.064 | 0.096
